Source: publication PMC4336329 (PLoS ONE, 2015)
In all, about 310,000 compounds went through this assay and about 14,000 (4.5%) showed an effect of 50% or more. The effect is printed as a negative number. Some of the results follow.

What follows are compounds tested against human ether-à-go-go-related gene (hERG) potassium channel (human, UniProt Q12809) (assay: primary screen, population patch clamp on CHO cells stably expressing hERG).
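Note: peak tail current of the secondary pulse compared with the same well before compound.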

human ether-à-go-go-related gene (hERG) potassium channel, sequence (Q12809 whole entry, looked up): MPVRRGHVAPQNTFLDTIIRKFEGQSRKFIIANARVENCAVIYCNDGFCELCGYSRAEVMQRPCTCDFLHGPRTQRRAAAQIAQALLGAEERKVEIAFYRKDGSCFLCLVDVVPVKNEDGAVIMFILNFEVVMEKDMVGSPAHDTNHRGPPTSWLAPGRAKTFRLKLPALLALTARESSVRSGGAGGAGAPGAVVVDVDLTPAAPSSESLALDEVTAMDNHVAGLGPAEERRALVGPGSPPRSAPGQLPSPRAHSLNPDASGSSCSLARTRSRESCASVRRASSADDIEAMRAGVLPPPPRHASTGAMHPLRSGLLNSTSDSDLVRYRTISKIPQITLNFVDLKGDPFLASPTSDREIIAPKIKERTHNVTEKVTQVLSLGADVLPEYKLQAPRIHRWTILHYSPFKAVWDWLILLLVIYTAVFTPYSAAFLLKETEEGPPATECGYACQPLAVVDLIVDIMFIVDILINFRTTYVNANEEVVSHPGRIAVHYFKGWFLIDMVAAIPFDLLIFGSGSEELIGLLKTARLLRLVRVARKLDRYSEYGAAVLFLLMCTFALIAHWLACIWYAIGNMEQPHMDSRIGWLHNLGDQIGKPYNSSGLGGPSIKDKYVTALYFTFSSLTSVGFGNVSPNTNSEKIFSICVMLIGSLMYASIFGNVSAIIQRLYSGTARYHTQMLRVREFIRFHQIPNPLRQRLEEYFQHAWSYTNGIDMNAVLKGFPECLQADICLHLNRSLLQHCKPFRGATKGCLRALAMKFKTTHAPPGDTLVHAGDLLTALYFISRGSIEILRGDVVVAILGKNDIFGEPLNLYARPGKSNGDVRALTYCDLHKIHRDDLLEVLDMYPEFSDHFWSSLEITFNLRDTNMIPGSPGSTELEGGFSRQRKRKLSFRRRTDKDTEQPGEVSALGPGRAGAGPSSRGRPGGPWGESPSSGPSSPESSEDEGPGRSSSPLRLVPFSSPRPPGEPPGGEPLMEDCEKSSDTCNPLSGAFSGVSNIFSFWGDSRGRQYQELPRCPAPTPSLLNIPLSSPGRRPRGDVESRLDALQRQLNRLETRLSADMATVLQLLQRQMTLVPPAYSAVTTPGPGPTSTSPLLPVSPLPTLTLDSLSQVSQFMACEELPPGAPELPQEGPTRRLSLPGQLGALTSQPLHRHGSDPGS

Structure (SMILES) | hERG current change (%, negative = inhibition) at 10uM [%]
O=C(c1cc(Cl)cc(Cl)c1)N1CCN(c2cc(C(F)(F)F)nc3ccccc23)CC1 | -14.8
Cn1cnc2ccc([N+](=O)[O-])cc2c1=O | 7.82
Cc1ccc(S(=O)(=O)N2CCCCC2)cc1C(=O)c1nccn1C | -2.56
N#Cc1ccccc1NCc1ccccc1 | 6.33
Cc1ccc(S(=O)(=O)NC(=O)Nc2nc(-c3ccc(F)c(F)c3)cs2)cc1 | 11.3
Cc1ccc(Nc2nc(-c3sc(NC(=O)c4ccccc4)nc3C)cs2)cc1 | 12.6
COc1ccc2[nH]c(C)c(CCNC(=S)Nc3ccccc3OC)c2c1 | 8.79
Cc1ccc(-c2ccc(/C=C/C(=O)c3ccccc3)o2)cc1 | -1.28
Cc1occc1C(=O)N/N=C/C=C\c1ccccc1[N+](=O)[O-] | -18.7
CC(=O)Nc1ccc2[nH]ccc2c1 | 0.471
COc1ccc(OCCNC(=O)Nc2cc(F)c(F)cc2Cl)cc1 | -5.04
CC12CN3CC(C)(CN(C1)C3c1ccccc1Cl)C2O (centres unmarked) | -8.03
NC(=O)CSc1ccc(Br)cc1 | -5.33
COC(=O)Cn1nc(C)c2ccccc2c1=O | 9.18
Cc1nc(N2CCOCC2)nc(N2CCN(c3ccccc3)CC2)c1[N+](=O)[O-] | 8.18
CCNC(=O)CCn1nc(-c2ccc(Cl)cc2)c2ccccc2c1=O | -29
CCn1cc(C(=O)N2CCN(c3ccccn3)CC2)c(=O)c2cc(S(=O)(=O)N3CCC(C)CC3)ccc21 | -55.9
O=C(CCc1nc2ccccc2c(=O)[nH]1)NNC(=O)c1ccccc1Cl | -18.4
CS(=O)(=O)N(CC(=O)N1CCc2ccccc2C1)Cc1ccc(F)cc1 | -14.6

Structure (SMILES) | hERG current change (%, negative = inhibition) at 10uM [%]
CCCCN(C)CCNC(=O)CN1C(=O)CSc2ccc(S(=O)(=O)N3CCCC3)cc21 | -3.28
CCO.C[C@H]1c2cccc(O)c2C(O)=C2C(=O)[C@]3(O)C(O)=C(C(N)=O)C(=O)[C@@H](N(C)C)[C@@H]3[C@@H](O)[C@@H]21.Cl.O | 7.31
CC(=O)N1CCN(C(=O)CCc2cc(C(C)(C)C)c(O)c(C(C)(C)C)c2)CC1 | 3.08
O=C(N/N=C/c1nn(-c2ccccc2)cc1-c1ccc(Cl)cc1)c1ccncc1 | 18.1
Cc1ccccc1C(=O)NNC(=O)C(C)N1C(=O)c2ccccc2C1=O (centres unmarked) | 2.16
Cc1cc(C)c(NC(=O)c2ccc3c(c2)C(=O)N(Cc2cccnc2)C3=O)c(C)c1 | 13.3
COCCn1c(Cc2ccccc2)nnc1SCC(=O)N(C)C | 14.3
Cc1ccccc1C(=O)N1CCC(C(=O)NCCc2ccc(S(N)(=O)=O)cc2)CC1 | 16.2
CCS(=O)(=O)c1nc(S(=O)(=O)c2ccc(Cl)cc2)c(NCCCN2CCCC2=O)s1 | -24.1
Cc1cc(NS(=O)(=O)c2ccc(Cl)cc2)nn1CC(=O)NCc1ccco1 | 6.42
CCOc1ccc(N2C(=O)C3C(C2=O)C3(c2ccccc2)c2ccccc2)cc1 (centres unmarked) | -3.59
S=C1NCCOCCNC(=S)NCCOCCOCCOCCN1 | 10.2
Cc1ccccc1NC(=O)c1c([N+](=O)[O-])cnn1C | 15.8
C[C@H]1CCCC(=O)CCCCCc2cc(O)cc(O)c2C(=O)O1 | -0.0905
N#CCCN(CCC#N)C(=O)c1ccc(Cl)cc1 | 5.57
O=C(Nc1nc2c(s1)COc1ccccc1-2)c1cccs1 | -4.39
CC1CCCCC1NC(=O)Cn1cccc1C(=O)c1ccccc1 (centres unmarked) | 8.34
O=C(CSc1nc2ccccc2s1)NCc1cc([N+](=O)[O-])ccc1O | 9.05
Cc1csc(SCC(=O)Nc2ccc(C)c(F)c2)n1 | -16.3

Structure (SMILES) | hERG current change (%, negative = inhibition) at 10uM [%]
COCCN(C(=O)c1csnn1)C(C(=O)NC1CCCCC1)c1sccc1C (centres unmarked) | -14.5
c1ccc(-c2nc(N3CCNCC3)nc3ccccc23)cc1 | -65.2
COC(=O)c1sccc1NC(=O)CC1C(=O)NCCN1C(=O)c1c(F)cccc1Cl (centres unmarked) | 5.02
O=C(COC(=O)c1nsc(Cl)c1Cl)NC1CCCC1 | -0.756
COc1ccc(C2CC(C(F)(F)F)n3ncc(C(=O)Nc4cccc(O)c4)c3N2)cc1OC (centres unmarked) | 4.45
CCN(CC)S(=O)(=O)c1cccc(NC(=O)CNC2CCCCCC2)c1.O=C(O)C(=O)O | -60.8
CCc1nnc2n1N=C(c1ccc(Cl)cc1)CS2 | 8.48
O=C(O)/C=C/C(=O)Nc1ccc(OC(F)(F)F)cc1Br | 15.7
COc1ccc(C2C(C#N)=C(N)Nc3onc(C(C)(C)C)c32)c(OC)c1 (centres unmarked) | 3.15
COc1ccc(-c2nn(C)c(=O)c3ccccc23)cc1NC(=O)Cn1nc(-c2ccccc2)c2ccccc2c1=O | 5.06
CCOP(=O)(OCC)C1NC(=O)N(c2ccccc2)C1=O (centres unmarked) | 11.7
Cc1ccc(C(=O)N/C(=C/c2ccco2)C(=O)O)cc1 | -3.15
Cc1cc(C)cc(N(CC(=O)NC2CCCC2)C(=O)CCC(=O)Nc2nccs2)c1 | 11.6
COc1ccc(-n2ncc3c(Nc4cccc(C)c4)ncnc32)cc1 | 2.39
O=C(CCn1nnc2ccccc21)Nc1nnc(COc2ccccc2F)s1 | 5.01
CC(=O)c1ccc2noc(-c3cccc(F)c3)c2c1 | 2.79
C=CCSc1nnc(NC(=O)C23CC4CC(CC(NC(C)=O)(C4)C2)C3)s1 | 2.02
CC(C)(C)C(=O)Nc1scc(-c2ccc(-c3ccccc3)cc2)c1C(=O)O | 45.8
